# Experimental data reported in PubChem BioAssay AID504832 (National Center for Advancing Translational Sciences (NCATS), 2011).
# Values joined by “and” are separate entries in the source; they are usually repeats but may differ in a detail not shown here. Equal entries are not always repeated. About 18,000 (5.8%) of roughly 310,000 compounds were called active. Inconclusive results, whose numbers are uncertain, are shown with a selection of clear calls. The call rests on the fitted dose curve; in most records, active means well fitted inhibition curve with a large enough effect; inconclusive means small, poorly fitted or top-dose-only effect, or another doubt; inactive means no such curve, though single readings can be large or run the other way. No potency is given beside an inconclusive call; the fits are too rough.
# Experiment: Primary qHTS for delayed death inhibitors of the malarial parasite plastid, 48 hour incubation
# Settings: P. falciparum luciferase growth in erythrocytes; series mostly up to 28.7 µM
# In short: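 Firefly luciferase activity from engineered P. falciparum reports growth; inhibitors lower the luminescent signal. Cultures contained 2% hematocrit erythrocytes at 0.1% final parasitemia.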
# Potency means the concentration at half of the fitted maximal effect; tags describe the fitted curve by direction and shape.
row,Compound,Potency
1,Cc1cc(-c2ccccc2)n(-c2ccc(C(=O)NC(C)C)cc2)n1,"inconclusive [inhibitor, partial curve]"
2,O=C(c1ccc(NC(=S)NCc2ccco2)cc1)N1CCOCC1,inactive
3,Cc1cccc(Cn2cc(/C=C/[N+](=O)[O-])c3ccccc32)c1,active: 3.7 µM
4,COC(=O)Nc1ccc2c(c1)N(C(=O)CCN1CCN3CCCC3C1)c1ccccc1S2 (stereo not drawn),"inconclusive [inhibitor, partial curve, poor fit]"
5,CC(c1nnc(SCC(=O)Nc2cc([N+](=O)[O-])ccc2F)n1Cc1ccccc1)N(C)C (stereo not drawn),active: 8.28 µM
6,O=C(c1ccc([N+](=O)[O-])cc1)N1CCN=C1SCc1ccccc1,"inconclusive [inhibitor, single point]"
7,Cc1ccc(CN2CCC(CNC(=O)C3CCCN(c4ncnc5c4nc4n5CCCCC4)C3)CC2)cc1 (stereo not drawn),"inconclusive [inhibitor, full curve, poor fit]"
8,Cc1ccc(Cn2nc(C)c(NC(=O)CSc3nc4c(c(C(F)(F)F)n3)CCc3ccccc3-4)c2C)cc1,"inconclusive [inhibitor, full curve, poor fit]"
9,COc1cc(NC(=S)NCCSc2ccc(C)cc2)cc(OC)c1,"inconclusive [inhibitor, single point]"
10,CC1(O)C[C@]2(C)N(O)C3CCCC[C@@H]3N2O1 (stereo partly drawn),"inconclusive [inhibitor, partial curve]"
11,COc1cc(CC(NC(C)=O)C(=O)NC2CCN(C(=O)C3CC3)CC2)cc(OC)c1 (stereo not drawn),inactive
12,O/N=C1/CCc2nonc2/C1=N/O,inactive
13,Cc1ccc2nc(N(CCCN(C)C)C(=O)c3ccco3)sc2c1,inactive
14,CCOC(=O)C1=C(COC(=O)c2ccc(Cl)cc2[N+](=O)[O-])NC(=O)NC1C (stereo not drawn),inactive
15,C=CCN(c1ccccc1)S(=O)(=O)c1cccc(C(=O)Oc2ccc3c(C)cc(=O)oc3c2)c1,inactive
16,CN(C)c1ccc(CNC(=O)C2CCN(S(=O)(=O)c3ccc4c(c3)CCCC(=O)N4)CC2)cc1,"inconclusive [inhibitor, single point]"
17,CC(C)(C)C(=O)Nc1ccc(C(=O)CN2C(=O)NC3(CCOc4ccccc43)C2=O)cc1 (stereo not drawn),"inconclusive [inhibitor, single point]"
18,O=C(Nc1c(-c2ccccc2)nc2ccccn12)c1ccccc1,"inconclusive [inhibitor, full curve, poor fit]"
19,COc1ccc(NC(=O)CN2C(=O)CSc3ccc(S(=O)(=O)N4CCC(C)CC4)cc32)cc1,"inconclusive [inhibitor, single point]"
20,O=C(Nc1cccc(C(=O)NC2CC2)c1)c1ccc(Cl)c(S(=O)(=O)N2CCOCC2)c1,"inconclusive [inhibitor, single point]"
21,O=C(NCC1COCCO1)c1ccc2nc(Cc3cccc(Cl)c3)oc2c1 (stereo not drawn),inactive
22,Cn1cccc1Cc1nnc(SCC(=O)NC2CCCCC2)n1CCc1ccccc1,"inconclusive [inhibitor, single point]"
23,CC(C)CNC(=O)COC(=O)C1c2ccccc2Oc2ccccc21,inactive
24,Cc1cc(C)n(-c2cccc(Cl)c2C#N)n1,inactive
25,Cc1ccccc1SCC(=O)OCC(=O)Nc1ccc(N(C)C)cc1,"inconclusive [inhibitor, single point]"

row,Compound,Potency
1,O=C1C(=O)c2ccccc2C(O)=C1CCCCl,active: 0.828 µM
2,Cc1cccc(NS(=O)(=O)c2cc(NC(=O)CC(=O)c3ccc([N+](=O)[O-])cc3)ccc2C)c1,"inconclusive [inhibitor, single point]"
3,COc1ccccc1C(=O)NCCC(=O)NNC(=O)Cn1ccc(C(F)(F)F)n1,inactive
4,O=C(Nc1ccc(Cl)cn1)Nc1ccccc1Cl,inactive
5,CCCc1nn(C)c2c(=O)[nH]c(-c3cc(S(=O)(=O)Nc4ccc(NC(C)=O)cc4)ccc3OCC)nc12,active: 9.28 µM
6,CS(=O)(=O)N1CCN(c2ccccc2NC(=O)c2cccc3ccccc23)CC1,"inconclusive [inhibitor, single point]"
7,CCCNC(=O)OC[C@H]1O[C@H](CCO/N=C/c2ccc(C(=O)N3[C@H](c4ccc(C)cc4)[C@@H](C)CC[C@H]3C(=O)OC)cc2)C=C[C@@H]1Oc1ccc(OC)cc1,"inconclusive [inhibitor, full curve]"
8,O=C(Nc1ccccc1)N1CCCC(c2nc(-c3ccc(F)cc3)no2)C1 (stereo not drawn),inactive
9,O=C(N/N=C/c1ccc[nH]1)c1ccc(COc2cccc3cccnc23)cc1,active: 10.4 µM
10,CC1CCCN(S(=O)(=O)c2ccc(NC(=O)Cc3ccc(S(=O)(=O)N4CCOCC4)s3)cc2)C1 (stereo not drawn),"inconclusive [inhibitor, single point]"
11,Cc1cccc(C)c1NC(=O)C1CCN(S(C)(=O)=O)CC1,inactive
12,COc1ccc(Cc2nc3ccc(C(=O)N(C)CCO)cc3o2)cc1,inactive
13,COCCn1c(-c2ccccc2)csc1=Nc1cccnc1,"inconclusive [inhibitor, single point]"
14,Cc1ccccc1-c1cc(C(=O)NCc2cccs2)n(CC2CC(c3cccnc3)=NO2)n1 (stereo not drawn),"inconclusive [inhibitor, single point]"
15,Cc1ccc(-c2cccc(C3CC=CC4C3C(=O)N(Cc3ccccc3)C4c3ccc(C(F)(F)F)cc3)c2)cc1 (stereo not drawn),"inconclusive [inhibitor, partial curve]"
16,O=C(NC(=S)Nc1ccc(S(=O)(=O)N2CCCC2)cc1)C1CC1,"inconclusive [inhibitor, partial curve, poor fit]"
17,CCOCCCNC(=O)C1CCCN(S(=O)(=O)c2cccc3nsnc23)C1 (stereo not drawn),inactive
18,CN1/C(=C\C(=S)NC(=O)c2cccc(Br)c2)C(C)(C)c2ccccc21,"inconclusive [inhibitor, single point]"
19,COc1cc(C(=O)Nc2nnc(C3=COCCO3)o2)cc(OC)c1OC,inactive
20,CC1CN(C(=O)c2cc(S(=O)(=O)N3CCN(c4ccccc4)CC3)ccc2Cl)CC(C)O1 (stereo not drawn),"inconclusive [inhibitor, single point]"
21,CCc1cccc(OCCn2ccnc2)c1,"inconclusive [inhibitor, partial curve, poor fit]"
22,C/C(CC(=O)Nc1cc(C)cc(C)c1)=N\NC(=O)c1ccccn1,inactive
23,c1ccc(N2CCN(c3nc4ccccc4n4nnnc34)CC2)cc1,"inconclusive [inhibitor, single point]"
24,O=C(COC(=O)CN1C(=O)C2CCCCC2C1=O)Nc1cc(F)ccc1F (stereo not drawn),inactive
25,Cc1ccc(Cn2cnc3c(nnn3Cc3ccc(Cl)cc3)c2=O)cc1,"inconclusive [inhibitor, partial curve, poor fit]"

row,Compound,Potency
1,Cc1cccc(C(=O)N2CCCC(Nc3ccc(F)c(F)c3)C2)n1 (stereo not drawn),inactive
2,CSc1nnc(-c2ccccc2)c(-c2ccccc2)n1,active: 11.7 µM
3,COCCCNC1=C(Cl)C(=O)c2ccccc2C1=O,active: 4.15 µM
4,CCCN(CCC)C(=O)C1CCC(CNS(=O)(=O)c2cccc3nsnc23)CC1 (stereo not drawn),"inconclusive [inhibitor, partial curve]"
5,COc1ccccc1Nc1c2c(nc3ccc(N)cc13)CCCC2,"inconclusive [inhibitor, partial curve]"
6,Cc1cc(N2Cc3ccccc3C2)ccc1C=O,inactive
7,C[N+](C)(C)CCCCCCCCCC[N+](C)(C)C,active: 953 nM and active: 657 nM
8,CC(C)Sc1cc(N2CCOCC2)nc(-c2ccccc2)n1,"inconclusive [inhibitor, single point]"
9,c1ccc2nc(N3CCNCC3)ccc2c1,"inconclusive [inhibitor, single point]"
10,CCOc1ccc(NC(=NCc2ccc3c(c2)OCO3)SC2CC(=O)N(c3ccc(C(=O)O)cc3)C2=O)cc1 (stereo not drawn),"inconclusive [inhibitor, single point]"
11,C/C(=N\Nc1cccc([N+](=O)[O-])c1)c1ccccc1O,inactive
12,Cc1cc2oc(=O)cc(CN3CCN(S(=O)(=O)c4cccs4)CC3)c2cc1C,"inconclusive [inhibitor, partial curve, poor fit]"
13,Cc1cc(NC(=O)NCc2ccccc2)c(=O)n(Cc2ccccc2F)c1,inactive
14,Cc1cc(=O)oc2cc(OCC(=O)Nc3ccc(N4CCC(C)CC4)cc3)ccc12,"inconclusive [inhibitor, partial curve]"
15,CCOc1ccc(CCNC(=O)COC(=O)CNC(=O)c2ccc(Br)o2)cc1OCC,"inconclusive [inhibitor, single point]"
16,COc1ccc(CN2CC[C@H]3C=CCc4cccc(c43)C2)cc1,active: 3.7 µM
17,Cc1cc(N2CCCCC2)c(F)cc1[N+](=O)[O-],inactive
18,O=C(Cn1nnc2ccccc21)Nc1ccc(Cl)cn1,inactive
19,CC1(C)Cc2c(ccc3ccccc23)/C(=C/C(=O)N2CCCCC2)N1,active: 10.4 µM
20,OCC[C@H]1C[C@@H](O)[C@H](O)[C@]2(OCCCc3ccccc32)O1,inactive
21,O=C(/C=C\c1ccco1)c1ccc(NC(=O)c2ccco2)cc1,inactive
22,Cc1ccc2c(c1)cc(CN(CCc1ccccc1)C(=O)N1CCOCC1)c1nnnn12,"inconclusive [inhibitor, single point]"
23,O=C(CSc1nc2ccccc2[nH]1)NC1CCS(=O)(=O)C1 (stereo not drawn),inactive
